# Whole data set: some 33,000 sequences, median “E-score (-0.5 to 0.5)” near -0.054, cut for the highest 2% near 0.35. Some of the results follow.
# Biological target: T1, Stb5 (UniProt P38699)
# T1 sequence: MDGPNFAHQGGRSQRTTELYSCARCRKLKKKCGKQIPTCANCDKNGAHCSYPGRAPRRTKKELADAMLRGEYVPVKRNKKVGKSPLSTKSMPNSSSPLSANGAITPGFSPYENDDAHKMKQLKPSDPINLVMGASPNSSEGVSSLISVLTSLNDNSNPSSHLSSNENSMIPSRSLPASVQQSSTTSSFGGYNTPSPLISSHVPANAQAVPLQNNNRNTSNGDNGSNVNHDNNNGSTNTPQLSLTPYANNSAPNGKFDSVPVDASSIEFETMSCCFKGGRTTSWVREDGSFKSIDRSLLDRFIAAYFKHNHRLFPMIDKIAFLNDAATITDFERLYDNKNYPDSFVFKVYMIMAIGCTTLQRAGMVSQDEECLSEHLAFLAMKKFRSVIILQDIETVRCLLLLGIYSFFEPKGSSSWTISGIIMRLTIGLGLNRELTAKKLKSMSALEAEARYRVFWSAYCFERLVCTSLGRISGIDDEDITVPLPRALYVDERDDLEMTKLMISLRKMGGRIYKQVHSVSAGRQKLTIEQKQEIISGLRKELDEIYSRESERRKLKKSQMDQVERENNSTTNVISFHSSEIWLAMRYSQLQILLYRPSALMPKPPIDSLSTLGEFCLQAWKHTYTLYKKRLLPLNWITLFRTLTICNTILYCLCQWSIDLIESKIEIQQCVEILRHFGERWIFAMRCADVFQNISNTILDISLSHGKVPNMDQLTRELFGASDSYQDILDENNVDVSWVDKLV
# Test: PBM E-score (8-mer binding enrichment) (E-score (-0.5 to 0.5)); higher = stronger / more preferred TF binding; most listed sequences are background and not binding sites
# Details: protein concentration: 200 nM; construct: GST-full length
# Method in brief: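 E-scores (a modified Wilcoxon-Mann-Whitney statistic) were assigned by the Universal PBM Analysis Suite to every ungapped eight-base word pooled with its reverse complement. The input came from universal all-10-mer Agilent arrays made double-stranded by primer extension and probed with GST-tagged yeast transcription factors at about 100-200 nM. Fluorescent anti-GST detected bound protein, and masliner normalised the scans.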
row,Sequence,PBM E-score
1,GATTTCCC,0.121
2,GAAAGTTC,-0.0628
3,GATCGAAA,0.025
4,AAGAGTTC,-0.221
5,GAAGATTC,-0.0122
6,TCCTTCGA,0.152
7,ATAAGGTA,-0.00169
8,GCTGCCGA,0.0951
9,CCGCCTAA,0.21
10,GTACTCTA,-0.229
11,GAACACTC,0.0983
12,CTTTCGCC,0.0347
13,ACAACGCT,-0.0427
14,AGTAGGTA,-0.199
15,TAACACAA,0.0222
16,AGACAAGA,-0.115
17,CGGTAGAC,0.128
18,AACGTCCT,-0.237
19,AATTGCGA,0.128
20,AATATCAA,-0.0438
21,AGCTTGGA,-0.203
22,ACAGGTCC,0.0999
23,ACGCTGCA,-0.14
24,CCGAGAAC,0.156
25,AAGCTCAT,-0.119

row,Sequence,PBM E-score
1,GCTCTCAC,-0.0463
2,CCTCACCC,-0.0298
3,AGGATCCA,-0.214
4,AACCTCTT,-0.0194
5,AACGCTAC,-0.00425
6,GCAAATCA,-0.0644
7,ATATCGTC,-0.0379
8,CTCCGCTA,0.349
9,AAGTCCGC,0.46
10,CGCCTGCC,-0.111
11,GCTACCGA,0.184
12,ACAGAACG,-0.0563
13,AGGTCCGG,0.382
14,AACTCCCA,-0.117
15,ACACCTTG,-0.0915
16,AGGCCTAA,-0.177
17,ATAATATG,0.024
18,CCCCTGTC,-0.207
19,CCGTTTTC,0.201
20,ACCTTGTA,-0.228
21,GTCGGTGA,0.374
22,GATCCCTA,0.00743
23,CACGAAAA,-0.139
24,CAAAACTA,-0.00581
25,AATCCTCA,-0.186

row,Sequence,PBM E-score
1,AAGCTGCC,-0.0664
2,GGATCGAA,0.115
3,AAATAGCG,0.0706
4,CAACCGTA,-0.155
5,CGCTATCA,0.3
6,GACGCACC,0.0726
7,AACTCCCC,0.0697
8,TCTACTCA,-0.12
9,CCTATTCA,-0.064
10,CACTTGGC,-0.194
11,CCGTAATC,0.0603
12,CCGTCGTA,0.261
13,CCTTAGAG,-0.176
14,CGAACTCG,-0.00972
15,AGGCGATG,-0.189
16,GAGAGGAC,-0.202
17,CCTCAGCA,-0.172
18,ACTCGCAG,-0.193
19,GAACTGTC,-0.099
20,TTATAAAA,0.119
21,AACAATGC,-0.134
22,TCTCCACA,-0.246
23,CAGAGGCC,-0.137
24,CACTGCGG,0.0873
25,GTATGGAC,0.14

row,Sequence,PBM E-score
1,GCGCACGA,-0.108
2,GGATATCA,0.131
3,AAGGACCC,0.0214
4,AAGACCCT,-0.233
5,ACGAGATA,-0.116
6,GAAAATCC,0.157
7,AGGCCTAG,-0.102
8,AACCCTAT,-0.244
9,AGTTCAAA,-0.156
10,CAGAATAA,-0.0172
11,ATAAATAG,0.0808
12,CTGCAGAC,0.0864
13,GCATTATA,0.105
14,GCTCAATA,-0.0372
15,CCAGATAC,-0.122
16,GGTGCGAC,0.173
17,CAATCTAC,-0.244
18,CTGAGTAC,-0.0401
19,GCTCGGCA,0.122
20,CGTCTAAA,-0.027
21,CCGGCATA,0.245
22,CTTTAGAC,-0.154
23,GTCTATTA,0.00744
24,CACCCGTG,-0.105
25,CGTGGTTC,0.0327

row,Sequence,PBM E-score
1,AATTCCCC,0.182
2,TCCTGTCA,-0.0975
3,CTAGGAAG,-0.298
4,AAGTTCGC,-0.248
5,ACTGCCCC,-0.19
6,GGAATGAA,0.101
7,AAGTACAT,-0.17
8,TCAGTAGA,-0.121
9,ACGCCGTC,0.405
10,ACTAATGC,0.051
11,AAGAACTG,-0.225
12,AGCCTGAT,-0.0692
13,ATACGCAC,-0.129
14,ATCGTCCA,-0.0552
15,GGCGTCGA,0.0581
16,CCGACCTC,0.229
17,TGTGGGAA,-0.16
18,CTCAGACA,-0.0761
19,AATCATTG,-0.314
20,AGCTACTC,-0.214
21,GCTACATA,-0.0356
22,CCACGACC,-0.07
23,CGGTCATC,0.135
24,AGCCACTA,-0.124
25,AAAATGGG,-0.11

row,Sequence,PBM E-score
1,CACATTAC,0.0555
2,AGCTCGGC,0.114
3,CACTATAG,-0.0425
4,GAGAAGGA,-0.258
5,ATATCCTA,0.0864
6,ACGTGCGG,0.288
7,CTCTTCTA,-0.157
8,GGATTTAC,0.322
9,CCCCACGG,0.209
10,GAATCTCA,-0.131
11,CTCAGATC,-0.106
12,GAAGGTAA,0.102
13,CCAAAACG,-0.139
14,CCACAGGA,0.0259
15,AAGAGCCC,0.191
16,TACACCAA,-0.128
17,AATAGTCT,-0.132
18,TCGCAGAA,-0.151
19,AGGCCACT,-0.189
20,ACAGTTTC,-0.155
21,ATGTCGGC,0.228
22,TACCAAGA,0.0547
23,AACTGCCC,-0.11
24,CCCCAGCA,-0.103
25,GCAGTTGA,-0.177

row,Sequence,PBM E-score
1,CACCCGAC,0.175
2,CTGGCGTC,-0.17
3,AAGCGCCA,-0.0397
4,CCTTTTCA,-0.0922
5,ATTCCCTA,0.0201
6,AGTCCAAA,-0.127
7,ATTGTTGC,-0.0776
8,ACTTCAAT,-0.0301
9,AAGCTCCC,-0.218
10,GGTTATGA,-0.156
11,CAGGCTCA,-0.382
12,GGTGATCA,0.0514
13,GGCTAAGA,-0.00102
14,AACCAGTT,-0.195
15,AGCGCCGG,0.376
16,AGACATTG,-0.319
17,ACGGAGTA,0.224
18,TACTGAAA,0.0281
19,GCCCCGAC,0.371
20,CGTACACC,0.217
21,ACGCGCGT,-0.126
22,AAAGGGCT,-0.124
